Data: the supplement of paper PMC9446081
The campaign covered roughly 39,000 compounds. About 220 (0.56%) showed activity. This is one part of the list.
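Further: static incubation at 37 °C against the wild-type strain, values averaged over two biological replicates.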

The molecules below were run on Escherichia coli K-12 BW25113 (assay: relative growth (OD600 normalised to plate interquartile mean) (fraction); higher = less growth inhibition, active = 0.2 or less). Conditions: 50 µM; LB; incubation time: overnight (16-24 h).
With `COCC#Cc1cnc2c(c1)C(=O)N([C@H](C)CO)C[C@@H](C)[C@@H](CN(C)C(=O)CCN1CCCCC1)O2` the relative growth was inactive: 1.02.
`C[C@H](CO)N1C[C@H](C)[C@H](CN(C)C(=O)Nc2cccc3ccccc23)Oc2ncc(-c3cc4ccccc4o3)cc2C1=O` was tested, and the relative growth was inactive: 1.04.
In the case of `O=C(C[C@@H]1CC[C@H]2[C@@H](COC[C@H](O)CN2S(=O)(=O)c2ccccc2Cl)O1)NCc1ccccc1Cl`, the relative growth is reported as inactive: 0.98.
`Cc1ccc(S(=O)(=O)N(C)C[C@H]2Oc3cc(C#Cc4ccncc4)ccc3S(=O)(=O)N([C@@H](C)CO)C[C@H]2C)cc1` was tested, and the relative growth was inactive: 1.04.
In the case of `C[C@@H]1CN([C@@H](C)CO)S(=O)(=O)c2ccc(-c3cccnc3)cc2O[C@@H]1CN(C)C(=O)NC1CCCC1`, the relative growth is reported as inactive: 1.
In the case of `CC(C)C[C@H](N)C(=O)O`, the relative growth is reported as inactive: 1.02.
`COc1ccc(NC(=O)N(C)C[C@H]2Oc3ccc(NC(=O)Nc4ccc(C(F)(F)F)cc4)cc3C(=O)N([C@@H](C)CO)C[C@H]2C)cc1` was tested, and the relative growth was inactive: 1.04.
In the case of `C[C@@H]1CN([C@H](C)CO)C(=O)c2c(c3ccccc3n2C)-c2ccccc2CO[C@@H]1CN(C)Cc1ccc2c(c1)OCCN2C`, the relative growth is reported as inactive: 1.02.
In the case of `Cn1c(=O)c2c(ncn2CC(O)CO)n(C)c1=O` (stereo not given), the relative growth is reported as inactive: 1.04.
In the case of `C[C@H](CO)N1C[C@H](C)[C@H](CN(C)Cc2ccccc2)OCCCC[C@H](C)Oc2ccc(NC(=O)Nc3ccc(F)cc3)cc2C1=O`, the relative growth is reported as inactive: 0.995.
`CCOC(=O)c1c(CN2CCN(Cc3ccccc3)CC2)n(-c2ccccc2)c2cc(Br)c(OC)cc12` was tested, and the relative growth was inactive: 1.03.
With `NC[C@H]1O[C@H](O[C@H]2[C@H](O[C@@H]3O[C@H](CO)[C@@H](O)[C@H]3O)[C@@H](O)[C@H](N)C[C@@H]2N)[C@H](N)[C@@H](O)[C@@H]1O` the relative growth was inactive: 0.515.
For `C[C@H]1CCCCO[C@H](CN(C)C(=O)c2ccccc2)[C@@H](C)CN([C@@H](C)CO)C(=O)c2cc(NS(=O)(=O)c3ccc(F)cc3)ccc2O1`, the relative growth was inactive: 1.02.
`C[C@@H]1CN([C@H](C)CO)C(=O)c2cc(NC(=O)Nc3ccccc3)ccc2O[C@@H]1CN(C)C(=O)Nc1ccc(C(F)(F)F)cc1` was tested, and the relative growth was inactive: 0.996.
`COc1ccc(C#Cc2ccc3c(c2)[C@]2(C(=O)N3)[C@H](C(N)=O)[C@H]3C(=O)O[C@H](c4ccccc4)[C@H](c4ccccc4)N3[C@@H]2c2ccccc2OCCO)cc1` was tested, and the relative growth was inactive: 1.06.
`C=CCNC(=O)[C@@H]1[C@H]2C(=O)O[C@H](c3ccccc3)[C@H](c3ccccc3)N2[C@H](c2ccc(O)cc2)[C@@]12C(=O)Nc1ccc(C#CC3=CCCCC3)cc12` was tested, and the relative growth was inactive: 1.03.
With `C[C@@H]1CN([C@@H](C)CO)S(=O)(=O)c2ccc(C#Cc3ccncc3)cc2O[C@@H]1CN(C)S(=O)(=O)c1ccccc1` the relative growth was inactive: 1.01.
For `COc1ccc(S(=O)(=O)Nc2ccc3c(c2)C(=O)N([C@H](C)CO)C[C@H](C)[C@@H](CN(C)Cc2ccc(Oc4ccccc4)cc2)O3)cc1`, the relative growth was inactive: 0.985.
For `C[C@H]1CCCCO[C@@H](CN(C)C(=O)Nc2ccc(C(F)(F)F)cc2)[C@@H](C)CN([C@@H](C)CO)C(=O)c2cc(NC(=O)Nc3ccccc3)ccc2O1`, the relative growth was inactive: 0.992.
With `CCCOc1c(-c2ccc3ccccc3n2)cnc2ccccc12` the relative growth was inactive: 0.983.
For `COc1ccc2c3c(n(c2c1)C)[C@H](CO)N(C[C@]13CN(C1)S(=O)(=O)C)C(=O)CN(C)C`, the relative growth was inactive: 0.985.
For `COCC(=O)N1C[C@@H](C)[C@@H](OC)CN(C)C(=O)c2cc(NC(=O)c3ccc(F)cc3)ccc2OC[C@H]1C`, the relative growth was inactive: 0.995.
In the case of `CC(=O)OCC(=O)C1(O)CCC2C3CCC4=CC(=O)CCC4(C)C3C(=O)CC21C` (stereo not given), the relative growth is reported as inactive: 1.07.
With `O=C(C[C@@H]1CC=CC[C@H](NC(=O)OCC2c3ccccc3-c3ccccc32)C(=O)OCCNC1=O)NCCO` the relative growth was inactive: 1.
In the case of `C[C@@H]1CN([C@@H](C)CO)C(=O)Cc2cc(NC(=O)Cc3cn(C)c4ccccc34)ccc2O[C@@H]1CN(C)Cc1ccc(C(=O)Nc2ccccc2N)cc1`, the relative growth is reported as inactive: 0.892.
With `O=C(CCCCCNC(=O)OCc1ccc(CO[C@@H]2C[C@H](c3ccc(Br)cc3)C=C(C(=O)N3CCN(Cc4ccccc4)CC3)O2)cc1)NO` the relative growth was inactive: 0.98.
For `C[C@@H]1CN([C@H](C)CO)C(=O)c2cc(NC(=O)Nc3ccccc3)ccc2O[C@H]1CN(C)Cc1ccc(Cl)c(Cl)c1`, the relative growth was inactive: 1.01.
For `Cc1cccn2c(=O)c(-c3nn[nH]n3)cnc12`, the relative growth was inactive: 1.
`C[C@@H]1CN([C@@H](C)CO)S(=O)(=O)c2ccc(C#Cc3ccccc3)cc2O[C@@H]1CN(C)S(=O)(=O)c1cn(C)cn1` was tested, and the relative growth was inactive: 1.03.
`C[C@@H]1CCCCO[C@@H](CN(C)C(=O)CCC(F)(F)F)[C@H](C)CN([C@@H](C)CO)C(=O)c2cc(NC(=O)CCC(F)(F)F)ccc2O1` was tested, and the relative growth was inactive: 0.933.
In the case of `C[C@@H]1CN([C@@H](C)CO)C(=O)c2cccc(NC(=O)c3ccc(-c4nccs4)cc3)c2O[C@H]1CN(C)S(C)(=O)=O`, the relative growth is reported as inactive: 0.893.
In the case of `C[C@H]1CN([C@@H](C)CO)C(=O)c2cc(C#CCN(C)C)cnc2O[C@H]1CN(C)C(=O)Nc1cccc(F)c1`, the relative growth is reported as inactive: 0.994.
`C[C@@H]1CN([C@@H](C)CO)C(=O)c2cc(NS(=O)(=O)c3ccc(F)cc3)ccc2O[C@H]1CN(C)S(=O)(=O)c1cccs1` was tested, and the relative growth was inactive: 0.981.
For `Cc1noc(C)c1NC(=O)N(C)C[C@@H]1Oc2ccc(NS(=O)(=O)c3cccs3)cc2CC(=O)N([C@H](C)CO)C[C@@H]1C`, the relative growth was inactive: 0.97.
With `COc1ccc(S(=O)(=O)N(C)C[C@@H]2Oc3c(NS(C)(=O)=O)cccc3C(=O)N([C@H](C)CO)C[C@@H]2C)cc1` the relative growth was inactive: 1.01.
`C[C@@H]1CCCCO[C@H](CN(C)S(=O)(=O)c2cn(C)cn2)[C@H](C)CN([C@H](C)CO)C(=O)c2cc(NS(=O)(=O)c3ccc(F)cc3)ccc2O1` was tested, and the relative growth was inactive: 1.01.
`C[C@@H]1CCCCO[C@H](CN(C)C(=O)Cc2ccccc2)[C@@H](C)CN([C@H](C)CO)C(=O)c2cc(NC(=O)Nc3ccccc3)ccc2O1` was tested, and the relative growth was inactive: 1.02.
`CC(C)NC(=O)N(C)C[C@H]1Oc2c(NC(=O)C3CCCCC3)cccc2C(=O)N([C@H](C)CO)C[C@@H]1C` was tested, and the relative growth was inactive: 0.994.
With `C[C@@H]1CN([C@@H](C)CO)C(=O)c2cccc(NC(=O)C3CCCCC3)c2O[C@@H]1CN(C)Cc1ccc(C(=O)Nc2ccccc2N)cc1` the relative growth was inactive: 0.99.
In the case of `O=C(C[C@H]1C[C@@H]2c3cc(NC(=O)Nc4ccc(C(F)(F)F)cc4)ccc3O[C@@H]2[C@H](CO)O1)NC1CCCCC1`, the relative growth is reported as inactive: 0.994.
`COc1ccc(S(=O)(=O)N(C)C[C@@H]2Oc3c(NS(=O)(=O)c4ccccc4)cccc3C(=O)N([C@@H](C)CO)C[C@H]2C)cc1` was tested, and the relative growth was inactive: 1.01.
With `C[C@@H]1CN([C@@H](C)CO)C(=O)c2cc(NC(=O)Nc3cccc4ccccc34)ccc2O[C@@H]1CN(C)CC1CCCCC1` the relative growth was inactive: 0.959.
In the case of `C[C@@H]1CCCCO[C@@H](CN(C)C(=O)c2ccncc2)[C@@H](C)CN([C@@H](C)CO)C(=O)c2cc(NS(=O)(=O)c3cn(C)cn3)ccc2O1`, the relative growth is reported as inactive: 0.997.
In the case of `Cc1noc(C)c1NC(=O)N(C)C[C@@H]1OCCCC[C@H](C)Oc2ccc(NC(=O)Nc3ccc(C(F)(F)F)cc3)cc2C(=O)N([C@@H](C)CO)C[C@@H]1C`, the relative growth is reported as inactive: 1.06.
With `O=C(O)CCc1nc2ccccc2[nH]1` the relative growth was inactive: 0.836.
`Cl.NC[C@H](N)C(=O)O` was tested, and the relative growth was inactive: 0.967.
For `COc1ccc(S(=O)(=O)Nc2cccc3c2O[C@@H](CN(C)S(=O)(=O)c2ccc(F)cc2)[C@H](C)CN([C@@H](C)CO)C3=O)cc1`, the relative growth was inactive: 0.984.
In the case of `C[C@H](CO)N1C[C@H](C)[C@@H](CN(C)CC2CCOCC2)Oc2ncc(C#Cc3ccc(F)cc3)cc2C1=O`, the relative growth is reported as inactive: 0.974.
For `COc1ccc(S(=O)(=O)N(C)C[C@H]2OCc3cn(nn3)CCCC(=O)N([C@H](C)CO)C[C@H]2C)cc1`, the relative growth was inactive: 0.976.
`Cc1ccc(S(=O)(=O)N(C)C[C@@H]2Oc3ccc(NS(=O)(=O)c4ccccc4)cc3C(=O)N([C@@H](C)CO)C[C@H]2C)cc1` was tested, and the relative growth was inactive: 0.983.
In the case of `COc1ccc(-c2cnc3c(c2)C(=O)N([C@H](C)CO)C[C@@H](C)[C@@H](CN(C)C(=O)Cc2ccccn2)O3)cc1`, the relative growth is reported as inactive: 1.01.
With `CC(=O)OC1C(=O)C2(C)C(O)CC3OCC3(OC(C)=O)C2C(OC(=O)c2ccccc2)C2(O)CC(OC(=O)C(O)C(NC(=O)c3ccccc3)c3ccccc3)C(C)=C1C2(C)C` (stereo not given) the relative growth was inactive: 1.05.
`Cc1cc(C)n2nc(N)nc2n1` was tested, and the relative growth was inactive: 0.965.
In the case of `C[C@@H]1CN([C@H](C)CO)C(=O)c2cc(NC(=O)Nc3cccc4ccccc34)ccc2O[C@@H](C)CCCCO[C@H]1CN(C)C(=O)Nc1ccc(C(F)(F)F)cc1`, the relative growth is reported as inactive: 0.992.
With `CCN1CCC(N(C)S(=O)(=O)c2cn(C)c(=O)n(C)c2=O)CC1` the relative growth was inactive: 0.994.
With `CSC[C@@H](O)Cn1[nH]c(=O)ccc1=O` the relative growth was inactive: 1.02.
With `COc1cccc(NC(=S)NN)c1` the relative growth was inactive: 0.871.
For `C[C@H](CO)N1C[C@H](C)[C@@H](CN(C)Cc2ccc(C(=O)O)cc2)Oc2c(NC(=O)C3CCOCC3)cccc2C1=O`, the relative growth was inactive: 0.998.
`Cc1ccc([C@@H](CN)c2c[nH]c3ccccc23)o1` was tested, and the relative growth was inactive: 1.
For `C[C@H]1CN([C@@H](C)CO)C(=O)Cc2cc(NC(=O)C3CC3)ccc2O[C@@H]1CN(C)C(=O)Nc1ccc2c(c1)OCO2`, the relative growth was inactive: 0.997.
